Eight substances from article PMC10195794 can be followed below.

The chains behind the UniProt entries cited, without tags or fusion partners. Where a name states a change or a piece, a line headed by the entry shows the natural chain unless it says otherwise. A line that says so, or that is headed by a name, gives the form on record, which may keep a tag or linker.
UniProt Q969H0: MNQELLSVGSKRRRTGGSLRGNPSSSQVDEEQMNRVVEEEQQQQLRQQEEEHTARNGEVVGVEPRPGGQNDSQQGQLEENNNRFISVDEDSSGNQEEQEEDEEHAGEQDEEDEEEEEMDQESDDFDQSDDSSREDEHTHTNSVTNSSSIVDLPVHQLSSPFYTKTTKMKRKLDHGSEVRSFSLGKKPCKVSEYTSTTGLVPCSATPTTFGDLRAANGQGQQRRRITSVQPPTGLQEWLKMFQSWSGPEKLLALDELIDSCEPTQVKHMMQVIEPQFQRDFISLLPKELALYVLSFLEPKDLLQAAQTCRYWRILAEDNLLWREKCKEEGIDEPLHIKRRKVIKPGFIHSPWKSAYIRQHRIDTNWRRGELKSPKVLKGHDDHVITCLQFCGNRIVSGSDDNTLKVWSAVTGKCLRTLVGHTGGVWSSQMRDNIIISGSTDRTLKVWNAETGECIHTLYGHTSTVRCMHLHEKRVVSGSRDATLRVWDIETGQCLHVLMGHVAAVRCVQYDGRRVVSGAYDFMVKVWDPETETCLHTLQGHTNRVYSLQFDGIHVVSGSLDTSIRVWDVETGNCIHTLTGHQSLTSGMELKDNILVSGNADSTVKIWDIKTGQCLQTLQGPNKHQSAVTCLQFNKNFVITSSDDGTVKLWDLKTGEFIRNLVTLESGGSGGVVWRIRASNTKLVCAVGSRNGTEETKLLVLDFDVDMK
Flag-FBXW7β (Q969H0-2, form named): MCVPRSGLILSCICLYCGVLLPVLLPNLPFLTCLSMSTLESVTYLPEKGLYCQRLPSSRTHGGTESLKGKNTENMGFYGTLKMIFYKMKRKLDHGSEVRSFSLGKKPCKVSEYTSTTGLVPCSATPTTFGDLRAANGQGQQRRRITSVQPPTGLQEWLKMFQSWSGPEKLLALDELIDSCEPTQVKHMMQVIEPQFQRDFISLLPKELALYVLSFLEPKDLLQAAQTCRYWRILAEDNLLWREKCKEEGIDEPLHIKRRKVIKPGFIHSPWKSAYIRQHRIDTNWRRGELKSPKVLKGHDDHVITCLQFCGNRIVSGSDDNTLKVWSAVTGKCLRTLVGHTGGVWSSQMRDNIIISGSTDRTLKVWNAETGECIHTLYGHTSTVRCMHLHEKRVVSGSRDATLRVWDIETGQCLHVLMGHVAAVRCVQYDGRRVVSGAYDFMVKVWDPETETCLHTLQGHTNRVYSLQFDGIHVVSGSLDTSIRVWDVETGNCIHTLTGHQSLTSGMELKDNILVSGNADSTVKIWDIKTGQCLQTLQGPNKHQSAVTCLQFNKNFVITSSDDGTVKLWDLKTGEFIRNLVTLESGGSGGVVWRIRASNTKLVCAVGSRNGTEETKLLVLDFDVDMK
Flag-FBXW7γ (Q969H0-4, form named): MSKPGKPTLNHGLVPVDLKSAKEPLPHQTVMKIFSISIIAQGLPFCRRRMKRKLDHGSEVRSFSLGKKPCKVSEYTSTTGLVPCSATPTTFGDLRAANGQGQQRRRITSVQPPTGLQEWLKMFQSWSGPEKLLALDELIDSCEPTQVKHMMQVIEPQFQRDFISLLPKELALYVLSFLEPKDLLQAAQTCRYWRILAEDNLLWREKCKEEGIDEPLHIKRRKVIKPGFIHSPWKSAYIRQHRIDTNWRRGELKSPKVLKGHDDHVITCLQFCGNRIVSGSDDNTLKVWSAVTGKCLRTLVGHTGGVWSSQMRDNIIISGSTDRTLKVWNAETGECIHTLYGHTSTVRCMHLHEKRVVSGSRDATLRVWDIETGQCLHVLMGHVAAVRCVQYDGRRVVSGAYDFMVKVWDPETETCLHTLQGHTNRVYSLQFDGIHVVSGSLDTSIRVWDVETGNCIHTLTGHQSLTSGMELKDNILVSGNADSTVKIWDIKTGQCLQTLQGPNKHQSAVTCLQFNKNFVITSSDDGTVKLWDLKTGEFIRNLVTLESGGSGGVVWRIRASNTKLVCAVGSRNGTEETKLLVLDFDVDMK
UniProt P49327: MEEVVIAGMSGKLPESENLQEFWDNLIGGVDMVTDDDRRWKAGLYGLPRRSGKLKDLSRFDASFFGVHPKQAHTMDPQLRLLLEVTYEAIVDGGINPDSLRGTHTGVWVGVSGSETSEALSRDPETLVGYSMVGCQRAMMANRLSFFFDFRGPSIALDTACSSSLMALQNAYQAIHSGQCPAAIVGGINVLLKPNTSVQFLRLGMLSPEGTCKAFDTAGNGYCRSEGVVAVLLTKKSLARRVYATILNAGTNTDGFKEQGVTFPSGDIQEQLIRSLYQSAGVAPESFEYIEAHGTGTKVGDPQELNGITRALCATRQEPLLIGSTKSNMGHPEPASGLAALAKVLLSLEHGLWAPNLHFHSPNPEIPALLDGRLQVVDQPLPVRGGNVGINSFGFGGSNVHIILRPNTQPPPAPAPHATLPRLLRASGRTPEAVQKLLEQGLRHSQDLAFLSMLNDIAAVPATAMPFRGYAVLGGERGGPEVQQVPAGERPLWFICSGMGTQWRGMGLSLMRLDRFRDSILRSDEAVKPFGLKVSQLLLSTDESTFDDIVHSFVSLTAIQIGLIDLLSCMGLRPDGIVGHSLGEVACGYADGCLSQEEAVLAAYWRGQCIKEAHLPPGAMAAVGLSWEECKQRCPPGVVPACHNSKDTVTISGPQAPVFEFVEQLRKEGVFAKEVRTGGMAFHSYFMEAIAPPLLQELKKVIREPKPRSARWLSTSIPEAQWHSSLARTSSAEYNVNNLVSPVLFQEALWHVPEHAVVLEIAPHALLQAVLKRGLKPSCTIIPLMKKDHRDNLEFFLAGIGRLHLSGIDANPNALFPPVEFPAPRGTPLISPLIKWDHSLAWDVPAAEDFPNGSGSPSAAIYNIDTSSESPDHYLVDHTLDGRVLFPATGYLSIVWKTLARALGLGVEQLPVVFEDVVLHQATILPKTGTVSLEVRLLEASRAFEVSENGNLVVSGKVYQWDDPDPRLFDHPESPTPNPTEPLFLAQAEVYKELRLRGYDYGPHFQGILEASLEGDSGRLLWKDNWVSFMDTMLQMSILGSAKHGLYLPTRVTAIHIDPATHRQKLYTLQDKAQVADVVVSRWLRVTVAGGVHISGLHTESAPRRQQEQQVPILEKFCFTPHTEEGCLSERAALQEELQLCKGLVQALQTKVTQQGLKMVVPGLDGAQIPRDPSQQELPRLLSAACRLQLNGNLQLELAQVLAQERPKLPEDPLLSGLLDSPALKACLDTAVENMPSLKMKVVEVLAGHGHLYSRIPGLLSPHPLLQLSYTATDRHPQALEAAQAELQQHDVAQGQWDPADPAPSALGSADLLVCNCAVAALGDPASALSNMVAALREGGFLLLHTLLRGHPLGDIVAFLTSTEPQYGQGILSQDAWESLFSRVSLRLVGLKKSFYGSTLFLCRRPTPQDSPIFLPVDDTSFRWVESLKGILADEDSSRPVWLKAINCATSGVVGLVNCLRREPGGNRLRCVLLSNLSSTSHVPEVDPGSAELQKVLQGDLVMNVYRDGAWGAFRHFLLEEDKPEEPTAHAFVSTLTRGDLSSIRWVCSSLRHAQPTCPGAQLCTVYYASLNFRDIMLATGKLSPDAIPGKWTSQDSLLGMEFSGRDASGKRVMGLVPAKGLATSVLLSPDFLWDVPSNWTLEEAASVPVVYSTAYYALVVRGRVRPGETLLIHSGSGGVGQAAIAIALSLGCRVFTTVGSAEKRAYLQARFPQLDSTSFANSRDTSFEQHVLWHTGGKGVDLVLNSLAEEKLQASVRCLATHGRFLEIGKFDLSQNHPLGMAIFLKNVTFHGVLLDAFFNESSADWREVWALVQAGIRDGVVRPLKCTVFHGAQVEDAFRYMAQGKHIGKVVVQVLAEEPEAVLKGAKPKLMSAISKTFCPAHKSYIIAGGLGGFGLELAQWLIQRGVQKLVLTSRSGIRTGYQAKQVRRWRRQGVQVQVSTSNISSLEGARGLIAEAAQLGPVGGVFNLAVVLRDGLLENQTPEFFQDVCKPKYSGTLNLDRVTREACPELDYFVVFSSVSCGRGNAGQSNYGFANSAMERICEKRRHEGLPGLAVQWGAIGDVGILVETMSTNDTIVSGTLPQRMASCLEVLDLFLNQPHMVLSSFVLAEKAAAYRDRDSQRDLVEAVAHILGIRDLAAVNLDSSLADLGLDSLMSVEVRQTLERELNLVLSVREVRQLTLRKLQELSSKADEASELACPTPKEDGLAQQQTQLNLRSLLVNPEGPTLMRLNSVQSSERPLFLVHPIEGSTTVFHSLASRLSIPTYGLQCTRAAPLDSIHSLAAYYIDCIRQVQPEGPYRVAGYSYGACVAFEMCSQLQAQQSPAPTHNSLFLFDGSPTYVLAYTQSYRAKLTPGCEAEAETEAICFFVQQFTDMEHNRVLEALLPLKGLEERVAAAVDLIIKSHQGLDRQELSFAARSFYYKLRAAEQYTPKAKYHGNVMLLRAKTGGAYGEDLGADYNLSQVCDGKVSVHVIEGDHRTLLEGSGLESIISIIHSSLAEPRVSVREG
UniProt Q7L5N1: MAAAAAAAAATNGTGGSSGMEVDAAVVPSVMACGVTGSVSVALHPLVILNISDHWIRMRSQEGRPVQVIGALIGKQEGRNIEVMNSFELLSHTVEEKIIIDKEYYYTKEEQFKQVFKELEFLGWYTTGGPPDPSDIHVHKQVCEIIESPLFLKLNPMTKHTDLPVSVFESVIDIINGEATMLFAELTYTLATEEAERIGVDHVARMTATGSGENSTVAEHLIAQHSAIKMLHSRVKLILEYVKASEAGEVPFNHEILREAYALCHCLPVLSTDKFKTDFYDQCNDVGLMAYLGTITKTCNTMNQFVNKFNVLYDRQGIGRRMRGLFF
UniProt P49841: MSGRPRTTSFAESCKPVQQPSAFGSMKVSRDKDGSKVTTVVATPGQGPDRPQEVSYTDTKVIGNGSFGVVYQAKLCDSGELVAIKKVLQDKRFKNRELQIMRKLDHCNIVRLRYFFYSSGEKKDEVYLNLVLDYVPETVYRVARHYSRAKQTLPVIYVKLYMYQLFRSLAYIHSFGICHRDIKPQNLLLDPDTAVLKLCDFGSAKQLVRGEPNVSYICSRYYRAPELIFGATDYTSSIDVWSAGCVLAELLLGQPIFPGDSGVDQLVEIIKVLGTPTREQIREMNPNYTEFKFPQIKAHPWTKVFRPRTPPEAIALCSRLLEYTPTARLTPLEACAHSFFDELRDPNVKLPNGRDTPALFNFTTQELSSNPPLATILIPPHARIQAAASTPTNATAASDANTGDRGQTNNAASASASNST

The target in experiment [1] is FBXW7β, exogenous (Supplementary Fig. 3a, h, i, l) (human) (UniProt Q969H0). Kind of experiment: co-IP; exogenous CSN6 and FBXW7β (Supplementary Fig. 3a); tags, beads and cells not shown.
Experiment [2] addresses FBXW7β, in vitro translated (human) (UniProt Q969H0). The experiment is described as follows: co-IP; in vitro immunoprecipitation of proteins made with the TNT Quick Coupled Transcription/Translation system; pulled down with anti-Flag M2 beads or anti-Myc beads, immunoblot.
Another experiment deals with Flag-FASN (human) (UniProt P49327). The experiment is described as follows: co-IP; lysates of transfected HEK293T cells (20 μM MG132 for 6 h before harvest) with anti-Flag M2 agarose beads overnight at 4 °C, washed five times with lysis buffer, immunoblot; in some panels CHIR (4 μM, 12 h or 24 h) or co-expressed HA-GSK3β (S9A).
In a further experiment the target is Myc-FASN (human) (UniProt P49327). The experiment is described as follows: co-IP; lysates of transfected HEK293T cells with anti-Myc magnetic beads overnight at 4 °C, immunoblot. A general note: In western blotting, separated proteins are transferred to a membrane and probed.
Experiment [3] addresses FBXW7β, endogenous (human (endogenous in HCT 116)) (UniProt Q969H0). Kind of experiment: co-IP; endogenous proteins; HCT 116 lysate with anti-CSN6 or anti-FBXW7β antibody or control IgG overnight at 4 °C, then Protein A/G agarose beads 4 h at 4 °C, immunoblot.
Another experiment deals with Flag-FBXW7β (human) (UniProt Q969H0). Kind of experiment: co-IP; lysates of transfected HEK293T cells (20 μM MG132 for 6 h before harvest) with anti-Flag M2 agarose beads overnight at 4 °C, washed five times with lysis buffer, immunoblot; in some panels CHIR (4 μM, 12 h or 24 h) or co-expressed HA-GSK3β (S9A).

No constants are given. Whether binding was seen depends on the method and setting. Binding seen in cells or lysates may run through a third protein. Some entries that bind do so weakly or less than the wild type.

As for “CSN6, exogenous (Supplementary Fig. 3a) (from UniProt Q7L5N1 1-327)”, the binding result in experiment [1] is “binds”.
As to “CSN6, in vitro translated (from UniProt Q7L5N1 1-327)”, the binding result in experiment [2] is given as “binds”.
On to HA-FBXW7β (from UniProt Q969H0-2 1-627), for which, in the experiment with Flag-FASN (human), the binding result is given as “binds”.
As to “Flag-FBXW7α (from UniProt Q969H0-1 1-707)”, in the experiment with Myc-FASN (human), the binding entry is given as “no binding”.
Same read-out and setting: then “Flag-FBXW7γ (from UniProt Q969H0-4 1-589)”, with “no binding”.
On to “HA-GSK3β (from UniProt P49841 1-420) (enzyme)”, for which the binding entry in the experiment with Flag-FASN (human) is “binds”.
Regarding “Flag-FBXW7β (from UniProt Q969H0-2 1-627)”, the binding result in the experiment with Myc-FASN (human) is listed as “binds”.
“CSN6, endogenous (from UniProt Q7L5N1 1-327)”: the binding result (in experiment [3]; with Flag-FBXW7β (human)) was “binds” in each case.
